Test results published in PubChem BioAssay AID686970 (National Center for Advancing Translational Sciences (NCATS), 2013).
Screen size: about 360,000 compounds; about 6,000 (1.7%) were called active. The inconclusive results got no clear call from the source; some entries with a clear call stand among them for comparison. Calls follow the shape of the dose curve; as a rule, active = well fitted cell-killing curve with a large enough effect; inconclusive = small, poorly fitted or top-dose-only effect, or effect the other way; inactive = flat fitted curve, though single readings scatter. No potency is given beside an inconclusive call; the fits are too rough.

assay: qHTS for induction of synthetic lethality in tumor cells producing 2HG: qHTS for the HT-1080-NT fibrosarcoma cell line; conditions: HT-1080-NT fibrosarcoma viability, CellTiter-Glo ATP luminescence, 48 h; activity, negative = less viability: at 46.1 µM (top of the series) unless noted;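 also: NT is the 2HG producing partner of a matched IDH1 knockdown line; nearly all actives have a fitted effect of over 55% in size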;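 as to activity, negative = less viability: 0% = DMSO-treated cells and -100% = media-only wells without cells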
Procedure, shortened: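 Compounds were tested in concentration-response format on HT-1080-NT cells for 48 hours at 37 degrees C. Cell viability came from CellTiter-Glo luminescence; curves were classified by r2, response magnitude and activity.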
Potency is read from the fitted curve at half-maximal effect; tags tell the direction and shape of the fitted curve.

SMILES | Potency | activity, negative = less viability
C[C@H]1CCC[C@@]2(O[C@@H](CCO)C[C@@H](O)[C@@H]2O)O1 | inactive | –
CC1(Cc2cc(Cl)ccc2C(F)(F)F)C(=O)Nc2cc(C(F)(F)F)ccc21 (stereo not given) | – | inconclusive: -78.8%
Cn1c(Cc2ccccc2)nnc1SCc1ccc(C(=O)O)cc1 | inactive | –
COc1ccccc1OCc1nc(-c2cccc([N+](=O)[O-])c2)no1 | inactive | –
O=C(NCc1nnc(SCC(=O)N2CCC(Cc3ccccc3)CC2)o1)c1ccco1 | inconclusive [rising, single point] | –
COC(=O)c1cc(=O)n(Cc2ccco2)c(=Nc2ccc(F)cc2)s1 | active: 23.1 µM | –
CCOc1ccc2oc(C(=O)NNC(=O)c3csc(N4CCOCC4)n3)c(C)c2c1 | inactive | –
CC(C)Cn1c2c(c(=O)[nH]c1=O)C(C(F)(F)F)(C(F)(F)F)N=C(CCC1CCCCC1)N2 | inconclusive [cytotoxic, partial curve] | –
Cc1cccc(-c2n[nH]c(=S)n2/N=C/c2ccc(C)s2)c1 | inconclusive [cytotoxic, single point] | –
Cc1cccc(COC[C@H](Cc2ccccc2)N2CCN(C(=O)c3ccc(C(F)(F)F)cc3)CCC2=O)c1 | inconclusive [cytotoxic, single point] | –
CCOC(=O)c1ccc2c(c1)nc(C1CCN(S(=O)(=O)c3cccs3)CC1)n2CC | inconclusive [cytotoxic, single point] | –
Cn1nccc1/C=C(/C#N)S(=O)(=O)c1ccccc1 | inactive | –
NC(=O)c1cc(S(=O)(=O)NCc2cccs2)cs1 | inconclusive [rising, partial curve] | –
COC(=O)C1=CN(c2ccc(OC)cc2OC)C(N)=C(C#N)C1c1ccc(OC)cc1 (stereo not given) | inconclusive [cytotoxic, single point] | –
O=C1N/C(=N\N=C\c2cccnc2)SC1Cc1ccc(SC(F)F)cc1 (stereo not given) | inconclusive [cytotoxic, single point] | –
CCOC(=O)c1sc(NC(=O)c2cc3ccccc3o2)nc1C | inactive | –
COc1ccc(C(=O)NCc2nnc(SCC(=O)N3CCCC3)o2)cc1OC | inactive | –
COc1ccccc1S(=O)(=O)N(C)C[C@@H]1OCc2cnnn2CCCC(=O)N([C@H](C)CO)C[C@H]1C | inactive | –
O=C(Nc1cccc([N+](=O)[O-])c1)c1cc2ccccc2cc1O | active: 3.66 µM | –
CNC[C@H](CC1CCCCC1)NC[C@H](CO)NCCc1cccc(C(F)(F)F)c1 | inconclusive [cytotoxic, single point] | –
COc1ccccc1NC(=O)Cc1csc(NC(=S)Nc2ccccc2)n1 | active: 3.55 µM | –
Cc1cccc(OCCNC(=O)c2ccc(Cl)c(S(=O)(=O)NCc3cccnc3)c2)c1 | inconclusive [cytotoxic, full curve] | –
O=C(Nc1nc2c(F)cccc2s1)c1ccc([N+](=O)[O-])o1 | inactive | –
COc1ccc(-c2cc3nc(-c4ccccc4)cc(N4CCC(O)CC4)n3n2)cc1 | active: 18.4 µM | –

SMILES | Potency | activity, negative = less viability
C#CCOCCOCCOCCNc1nc(N2CCN(C(=O)CCCCCCCCCCNC(=O)[C@H]([C@@H](C)CC)n3cc(CCCCCN)nn3)CC2)nc(N2CCN(C(=O)CCCCCCCCCCNC(=O)[C@@H]([C@H](C)O)n3cc(C)nn3)CC2)n1 | inconclusive [cytotoxic, single point] | –
COc1ccc(C(=O)Nc2ccc3cn[nH]c3c2)c(OC)c1 | inconclusive [rising, partial curve] | –
Cc1ccc2cccc(S(=O)(=O)N3CCN(c4ccccc4F)CC3)c2n1 | inconclusive [cytotoxic, single point] | –
COCCNc1nc(NCCN2CCNC2=O)c2sc(-c3ccccc3)cc2n1 | – | inconclusive: 15.4%
CCN(CC)c1ccc(/C=N/n2c(-c3ccccc3Br)n[nH]c2=S)cc1 | inconclusive [cytotoxic, single point] | –
CCn1c(SCC(=O)N/N=C/c2ccc(C)o2)nnc1-c1ccc(C(C)(C)C)cc1 | inactive | –
N/C(=N\OC(=O)c1ccc(Br)o1)c1cccnc1 | inconclusive [rising, full curve] | –
O=C1NC[C@H](Cc2ccc(O)cc2)N(C[C@@H]2CCCN2C[C@H](Cc2ccccc2)N2C[C@H](Cc3ccccc3)N(CC3CCCCC3)C(=O)C2=O)C1=O | inconclusive [cytotoxic, single point] | –
Cc1c(C(=O)N2CCN(C(c3ccccc3)c3ccccc3)CC2)oc2ccccc12 | inactive | –
COc1ccc(OC)c(C(=O)CSc2nccc(-c3ccc(Br)cc3)n2)c1 | inconclusive [cytotoxic, full curve] | –
CNC(=S)N(CCc1ccc(OC)c(OC)c1)C1CC(=O)N(c2ccccc2)C1=O (stereo not given) | inactive | –
CCCN(Cc1cc2cc(C)ccc2[nH]c1=O)C(=O)c1cccc([N+](=O)[O-])c1 | inactive | –
COc1cc(OC)cc(C(=O)N/N=C(\C)CC(=O)Nc2ccccn2)c1 | active: 2.59 µM | –
CCOc1ccc(-n2c(SCc3nc(-c4ccc(C)cc4)no3)nnc2-c2ccncc2)cc1 | inconclusive [cytotoxic, single point] | –
O=C(CSc1nc2ccccc2[nH]1)Nc1c(F)c(F)c(F)c(F)c1F | inconclusive [cytotoxic, single point] | –
Cc1cccc(C)c1-n1nnnc1C(c1ccccc1)N1CCN(C/C=C/c2ccccc2)CC1 (stereo not given) | inconclusive [cytotoxic, single point] | –
C[C@H](CO)N1C[C@H](C)[C@@H](CN(C)C(=O)Nc2ccc(C(F)(F)F)cc2)Oc2ccc(NC(=O)Nc3ccccc3)cc2C1=O | inconclusive [cytotoxic, single point] | –
Cc1cc(N2C(=O)CC(C(C)c3ccccc3)C2=O)no1 (stereo not given) | inconclusive [rising, full curve, poor fit] | –
COc1ccccc1-n1cnnc1SCC(=O)c1cc(C)n(Cc2cccs2)c1C | inactive | –
COCCNC(=O)c1cc(-c2ccc(-c3ccccc3)cc2)nc2ccccc12 | – | inconclusive: -14% [cytotoxic]
COc1cccc(-c2cc(C(=O)N3CCCc4ccccc43)no2)c1 | inconclusive [cytotoxic, partial curve] | –
Cc1cc(S(=O)(=O)N(Cc2ccc(C(C)C)cc2)CC2CCCO2)ccc1-n1cnnn1 (stereo not given) | inconclusive [cytotoxic, single point] | –
CCN1/C(=C/C(=S)Nc2ccccc2)Sc2ccccc21 | active: 6.51 µM | –
COc1ccc(-n2c(-c3ccccc3)c[n+]3c2CCC3)cc1 | – | inconclusive: -30% [cytotoxic]

SMILES | Potency | activity, negative = less viability
Cc1cc(C)c2cc(CN(CCO)C(=O)Nc3ccc(F)cc3)c(=O)[nH]c2c1 | inactive | –
CCC(CC)C(=O)Nc1cccc(C(=O)Nc2ccc3c(c2)OCO3)c1 | inconclusive [cytotoxic, single point] | –
O=C1C=C(C#Cc2ccc(Oc3ccccc3)cc2)C[C@@H](c2ccc(F)cc2)C1 | inconclusive [cytotoxic, single point] | –
CCOC(=O)CC1CCCCN1C(=O)c1ccc2oc(CCc3ccccc3)nc2c1 (stereo not given) | inactive | –
CC1CC(C)CN(C(=O)c2cccc(S(=O)(=O)N3c4ccccc4CC3C)c2)C1 (stereo not given) | inconclusive [cytotoxic, single point] | –
Cc1cc(-c2nnc(-c3ccccc3)c(-c3ccccc3)n2)c(C)o1 | inactive | –
CCCN(CCC)c1nc(-c2ccccn2)nc2ccccc12 | inconclusive [cytotoxic, partial curve, poor fit] | –
O=C(NC1CCCCC1)N1CCN(c2ccc([N+](=O)[O-])cc2)CC1 | inactive | –
Cc1ccc(NC(=O)C2(C)CCN2C(=O)CC(c2ccccc2)c2ccccc2)cc1 (stereo not given) | inactive | –
c1ccc2c(c1)CCCc1cc(NCCN3CCOCC3)nnc1-2 | inconclusive [rising, single point] | –
CS(=O)(=O)c1ccc(Cl)c(NC(=O)c2cccc(-n3cnnn3)c2)c1 | inactive | –
CCOC(=O)c1c(C)[nH]c(C(=O)OCC(O)=C(C#N)c2nc3ccccc3[nH]2)c1C | – | inconclusive: -20.8% [cytotoxic]
Cc1ccc(S(=O)(=O)c2nnn3c2nc(NCCCN2CCCC2=O)c2ccccc23)cc1C | inconclusive [cytotoxic, single point] | –
Cc1ccc(-c2nn(CCC#N)cc2C=C(C#N)C#N)cc1 | inconclusive [cytotoxic, single point] | –
COc1cc(C(=O)Oc2cccc(/C=N/NC(=O)c3cc(C)[nH]n3)c2)cc(OC)c1OC | inactive | –
Cc1cn2c(=O)c(C(=O)NCc3ccc4c(c3)OCO4)cnc2s1 | inconclusive [rising, full curve, poor fit] | –
Cc1ccc(C(=O)NC(=S)NCc2cccnc2)cc1C | inactive | –
CCN(CC(=O)Nc1ccc(S(=O)(=O)N2CCCC2)cc1)Cc1ccccc1 | inactive | –
COc1ccc(S(=O)(=O)N2CCOCC2)cc1NC(=O)COC(=O)C1CCC1 | inconclusive [rising, single point] | –
Cc1ccc(OCCCNCCO)c(Br)c1 | inconclusive [cytotoxic, partial curve] | –
O=C(O)c1c(Cl)cccc1Cl | – | inconclusive: 22.4%
CCc1ccc(S(=O)(=O)Nc2cc(SCC(=O)O)c(O)c3ccccc23)cc1 | inconclusive [cytotoxic, single point] | –
